Among all 310,000 compounds or so, about 2,200 (0.71%) showed an effect of 50% or more. Effects have a minus sign here. This is one part of the list.
Molecular target: human ether-à-go-go-related gene (hERG) potassium channel (human, UniProt Q12809)
Assay: primary screen, population patch clamp on CHO cells stably expressing hERG

Chain of human ether-à-go-go-related gene (hERG) potassium channel (Q12809 whole entry, looked up): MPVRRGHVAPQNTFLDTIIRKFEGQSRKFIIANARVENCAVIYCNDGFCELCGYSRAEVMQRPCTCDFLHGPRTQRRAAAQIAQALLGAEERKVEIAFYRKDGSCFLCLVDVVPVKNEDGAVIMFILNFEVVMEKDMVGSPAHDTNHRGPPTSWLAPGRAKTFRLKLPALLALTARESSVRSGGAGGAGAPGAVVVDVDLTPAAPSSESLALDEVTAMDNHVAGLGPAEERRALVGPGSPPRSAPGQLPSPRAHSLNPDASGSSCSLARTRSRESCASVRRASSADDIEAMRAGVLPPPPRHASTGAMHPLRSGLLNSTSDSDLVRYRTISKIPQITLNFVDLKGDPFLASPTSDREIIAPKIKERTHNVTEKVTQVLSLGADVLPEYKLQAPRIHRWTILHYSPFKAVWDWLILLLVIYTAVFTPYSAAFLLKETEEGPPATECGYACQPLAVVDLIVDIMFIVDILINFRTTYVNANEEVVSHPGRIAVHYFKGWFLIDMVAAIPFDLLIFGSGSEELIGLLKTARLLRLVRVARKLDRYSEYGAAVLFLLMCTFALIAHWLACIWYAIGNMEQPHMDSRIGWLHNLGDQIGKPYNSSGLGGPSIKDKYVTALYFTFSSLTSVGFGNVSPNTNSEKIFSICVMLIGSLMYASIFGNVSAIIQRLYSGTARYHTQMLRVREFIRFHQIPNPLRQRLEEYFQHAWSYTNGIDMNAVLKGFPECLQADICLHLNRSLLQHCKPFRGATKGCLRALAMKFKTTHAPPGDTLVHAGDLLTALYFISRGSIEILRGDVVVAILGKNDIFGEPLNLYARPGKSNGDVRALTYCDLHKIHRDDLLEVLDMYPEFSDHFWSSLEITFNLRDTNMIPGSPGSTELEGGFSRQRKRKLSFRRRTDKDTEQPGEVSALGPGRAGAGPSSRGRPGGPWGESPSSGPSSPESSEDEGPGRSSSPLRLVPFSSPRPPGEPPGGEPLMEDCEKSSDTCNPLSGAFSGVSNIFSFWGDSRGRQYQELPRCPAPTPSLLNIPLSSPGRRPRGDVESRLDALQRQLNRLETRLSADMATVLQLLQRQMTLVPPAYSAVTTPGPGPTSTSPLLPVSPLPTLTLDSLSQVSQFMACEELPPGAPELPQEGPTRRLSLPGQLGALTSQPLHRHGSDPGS

SMILES	hERG current change (%, negative = inhibition) at 1uM [%]
COc1cccc(CNC(=O)CCS(=O)(=O)Cc2ccc(C)cc2)c1	30.3
COc1ccc(N(C(=O)Cn2nnc3ccccc32)C2(C(=O)NC3CCCC3)CCCCC2)cc1	-0.0987
C=CCNC(=O)CN1CCC(c2nc3ccccc3[nH]2)CC1	16.5
O=C(O)c1cc(-c2ccccc2)n(-c2ccc(Cl)cc2Cl)n1	18.5
O=C(CN(C1CCCCC1)S(=O)(=O)c1ccc(Cl)cc1)NCc1cccnc1	-60.6
CC(C)C[C@@H](CSc1ccc(Br)cc1)N1CCN(C)CCC1=O	-34.4
COc1ccc(-c2csc(NC(CO)c3nc4ccccc4n3CCOCCO)n2)cc1 (stereo not shown)	-14.7
COc1ccccc1NC(=O)CSc1ccc2nnc(-c3cccnc3)n2n1	-25.6
CN(C)CCCN1C(=O)c2cccc3c([N+](=O)[O-])ccc(c23)C1=O	7.12
Cc1nc(-c2ccc(Cl)cc2)sc1C1(C)CC(c2c(Cl)cccc2Cl)=NO1 (stereo not shown)	17.8
Clc1ncc(CN2CCN(Cc3ccccc3)CC2)s1	6.26
COc1ccc(CNC(=O)C(=O)NC2CC(C)(C)NC(C)(C)C2)cc1	7.03
CCOC(=O)c1oc2ccc(CNC3CCCCC3)c(Cl)c2c1C.O=C(O)C(=O)O	1.84
CCOP(=O)(OCC)c1nc(-c2ccc(Cl)cc2)oc1NCc1ccccc1	10.1
CC(C)CN(C(=O)C(c1ccccc1)c1ccccc1)c1c(N)n(CC(C)C)c(=O)[nH]c1=O	3.78
CCOC(=O)c1ccc2nc3c(cc2c1)CCS3	12.8
O=C(CN1C(=O)COc2ccc(S(=O)(=O)N3CCCC3)cc21)N1CCCC1	14.3
O=C(Cc1cn2ccsc2n1)OCc1ccccc1	9.72
COc1ccccc1CNC(=S)NCc1ccc(Cl)cc1	6.97
CC1CCCC(n2c(=S)[nH]c3ccccc3c2=O)C1C (stereo not shown)	5.82
O=C(O)c1ccc(-n2nc(-c3ccccc3)c3ccccc3c2=O)cc1	15.9
Cc1csc(SCC(=O)NC(=O)Cc2ccccc2)n1	12.5
O=[N+]([O-])c1cc(S(=O)(=O)Nc2cccc(Cl)c2)ccc1N/N=C/c1ccc(N2CCOCC2)cc1	10.7
O=C1c2ccccc2C(Nc2ccc(S(=O)(=O)N3CCCCCC3)cc2)N1Cc1ccco1 (stereo not shown)	4.75
Cc1ccccc1NC(=O)CCS(=O)(=O)c1cccc2nonc12	16.8
C=CCN(C(=O)CN1CCCCC1)c1nc(-c2ccccc2)cs1	3.72
CCc1nnc(NC(=O)CSc2nnc(COc3ccc(C)cc3)n2-c2ccccc2)s1	1.49
CCNC(=O)N(CCOC)CC1CCCN(C2Cc3ccccc3C2)C1 (stereo not shown)	11.7

SMILES	hERG current change (%, negative = inhibition) at 1uM [%]
COc1cccc(N(CC(=O)N2CCN(C)CC2)S(=O)(=O)c2ccccc2)c1	5.26
COc1cc(NC(=O)COc2cccc(OC)c2)cc(OC)c1	-0.639
Cc1ccccc1C(=O)O/N=C1\CCS(=O)(=O)c2sccc21	10.4
NC(=O)CCc1nc2cc(C(F)(F)F)ccc2n(Cc2ccccc2)c1=O	1.09
O=C(C[N+]12CCC(CC1)C(O)C2)c1ccc(Br)cc1.[Br-] (stereo not shown)	9.26
COc1ccc(CN(CC(=O)NCc2ccccc2)C(=O)CCC(=O)Nc2cc(C)ccn2)cc1	-2.93
COc1ccc(C(CNC(=O)Cc2ccccc2Cl)N2CCCCC2)cc1 (stereo not shown)	20.7
O=C(Nc1ccc(F)cc1F)c1ccc(-n2cncn2)nc1	-1.74
Cc1ccc(C(C)C)c(OC/C(O)=C(\C#N)c2nc3ccccc3[nH]2)c1	8.56
O=C(O)c1ccccc1OCC1CCCO1 (stereo not shown)	15.9
COc1ccccc1-c1noc2ncnc(Nc3cccc(C)c3C)c12	8.74
CN(C)CCCN(C(=O)c1cc(-c2cccs2)nc2ccccc12)c1nc2c(F)cccc2s1.Cl	4.39
C(=N\Nc1nncc2ccccc12)/c1ccccn1	3.87
O=[N+]([O-])c1cc(Oc2cccnc2)cc([N+](=O)[O-])c1	-6.94
CSc1cccc(NC(=O)CSc2ncccc2C(=O)Oc2cccc([N+](=O)[O-])c2)c1	5.62
CC(C)(C)C(=O)NC1CC2CCCC(C1)N2C(=O)Nc1ccc(Cl)cc1 (stereo not shown)	8.91
CCCCN(CCCC)CCCNC(=O)Cn1cc2c(n1)-c1c(oc(C(=O)N3CCCC3)c1C)CC2	2.36
COc1cc(CCC(=O)OCC(=O)Nc2ccc(F)c(F)c2F)cc(OC)c1OC	7.88
CCN(Cc1ccccc1)C(=O)C1CCC(CNc2c(N3CCOCC3)c(=O)c2=O)CC1 (stereo not shown)	12.5
COC(=O)c1ccc(C)c(NS(=O)(=O)c2ccc(OC)cc2)c1	-2.25
COC(=O)C1=CN(c2ccc(OC)cc2)C=C(C(=O)OC)C1c1ccc(C)c([N+](=O)[O-])c1	16.5
CC(=O)[C@H]1[C@H]([C@H](O)[C@H](O)CO)O[C@](O)(C(=O)O)C[C@@H]1O	14.7
Cc1ccc(CN2[C@@H](c3ccccc3)COCCS2(=O)=O)cc1	7.56
C/C(=N\NC(=O)CN1CCCCC1)c1cccc([N+](=O)[O-])c1	2.07
Cc1ccc(CN2CCN(CC(=O)N3CCc4ccccc4C3)C2=O)cc1	-9.47
C=CCN(CC=C)C(=S)NC(=O)/C=C/c1ccccc1	3.17
CCOc1ccc(N(CC(=O)NCCc2ccc(OC)cc2)S(C)(=O)=O)cc1	5.26

From PMC4336329 (PLoS ONE, 2015)
